The whole screen tested about 310,000 compounds, of which about 2,200 (0.71%) showed an effect of 50% or more. Effects have a minus sign here. The list shows a part of the results.

Sequence of human ether-à-go-go-related gene (hERG) potassium channel (Q12809 whole entry, looked up): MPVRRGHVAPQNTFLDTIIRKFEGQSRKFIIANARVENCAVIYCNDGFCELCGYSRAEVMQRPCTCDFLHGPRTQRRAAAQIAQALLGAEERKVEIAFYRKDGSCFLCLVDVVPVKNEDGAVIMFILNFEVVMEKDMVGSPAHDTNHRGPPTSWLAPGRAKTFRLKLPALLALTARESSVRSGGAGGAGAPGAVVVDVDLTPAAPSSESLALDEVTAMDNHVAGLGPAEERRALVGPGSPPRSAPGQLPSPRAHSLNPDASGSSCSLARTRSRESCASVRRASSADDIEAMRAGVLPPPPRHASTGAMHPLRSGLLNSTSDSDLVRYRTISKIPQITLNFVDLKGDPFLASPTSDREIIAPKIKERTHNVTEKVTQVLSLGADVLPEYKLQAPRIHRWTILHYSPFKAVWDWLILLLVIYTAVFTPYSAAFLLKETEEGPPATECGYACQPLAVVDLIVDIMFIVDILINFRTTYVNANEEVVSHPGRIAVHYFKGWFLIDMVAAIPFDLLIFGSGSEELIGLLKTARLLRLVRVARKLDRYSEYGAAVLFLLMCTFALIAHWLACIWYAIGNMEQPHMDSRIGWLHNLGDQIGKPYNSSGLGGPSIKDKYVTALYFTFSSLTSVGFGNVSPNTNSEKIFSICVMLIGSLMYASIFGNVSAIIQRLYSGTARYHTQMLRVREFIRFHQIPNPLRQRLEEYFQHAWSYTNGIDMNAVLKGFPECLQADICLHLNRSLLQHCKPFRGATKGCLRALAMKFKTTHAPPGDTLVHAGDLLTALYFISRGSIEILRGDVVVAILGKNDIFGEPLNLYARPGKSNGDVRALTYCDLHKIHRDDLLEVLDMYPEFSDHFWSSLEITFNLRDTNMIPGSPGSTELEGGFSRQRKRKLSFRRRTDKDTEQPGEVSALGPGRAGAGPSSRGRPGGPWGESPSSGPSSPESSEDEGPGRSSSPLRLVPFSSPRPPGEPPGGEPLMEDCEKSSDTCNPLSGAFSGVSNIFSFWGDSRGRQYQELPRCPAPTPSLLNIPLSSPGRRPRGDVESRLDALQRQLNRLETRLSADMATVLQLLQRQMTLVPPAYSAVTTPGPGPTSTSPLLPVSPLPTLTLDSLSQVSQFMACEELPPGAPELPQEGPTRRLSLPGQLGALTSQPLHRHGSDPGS

The experiment addresses human ether-à-go-go-related gene (hERG) potassium channel (human, UniProt Q12809). Kind of experiment: primary screen, population patch clamp on CHO cells stably expressing hERG.
As for `Cc1c(C)n(Cc2ccc(Cl)cc2)c2ccc(C(=O)NCCN3CCOCC3)cc12`, the “hERG current change (%, negative = inhibition) at 1uM” value is given as 14.7%.

Turning to `COc1ccc(C(=O)OCC(=O)Nc2ccc([N+](=O)[O-])cc2OC)c(O)c1`, the “hERG current change (%, negative = inhibition) at 1uM” value is on record as -2.02%.

Turning to `O=C1c2ccccc2C(=O)N1CC(=O)N1c2ccccc2Sc2ccc(C(F)(F)F)cc21`, the “hERG current change (%, negative = inhibition) at 1uM” value is on record as -2.06%.

Take `COc1ccc(CSc2nc(C)cc(=O)[nH]2)cc1Br`: the “hERG current change (%, negative = inhibition) at 1uM” value was 12.7%.

For `CCCC(=O)Nc1sc(Cc2ccccc2)c(C)c1C(N)=O`, the “hERG current change (%, negative = inhibition) at 1uM” value is recorded as 8.37%.

Take `CCCNC(=O)Nc1ccc(NC(C)=O)cc1`: the “hERG current change (%, negative = inhibition) at 1uM” value is reported as -12.2%.

Consider `O=C(O)CCNC(=O)/C(=C\C=C\c1ccccc1)NC(=O)c1ccccc1`, for which the “hERG current change (%, negative = inhibition) at 1uM” value turned out to be 17.7%.

On to `CCc1ccc(OCCCCCn2ccnc2)cc1`, for which the “hERG current change (%, negative = inhibition) at 1uM” value is given as 12.8%.

`CCCOC(=O)CC1C(=O)NCCN1Cc1cc(OC)cc(OC)c1` (stereo not shown): the “hERG current change (%, negative = inhibition) at 1uM” value is reported as -0.865%.

As for `OCC[C@@H]1C[C@@H](O)[C@H](O)[C@]2(OCCCc3ccccc32)O1`, the “hERG current change (%, negative = inhibition) at 1uM” value came to 16.6%.

`O=C(NCCCN1CCOCC1)c1ccc(Cl)c([N+](=O)[O-])c1`: the “hERG current change (%, negative = inhibition) at 1uM” value is recorded as 9.74%.

For `Cc1ccc(-c2nc(N/N=C/c3ccncc3)c3ccccc3n2)cc1`, the “hERG current change (%, negative = inhibition) at 1uM” value is given as 3.75%.

`Cc1cc2nc(SCCOC(=O)Nc3ccccc3)nc(C)c2cc1C`: the “hERG current change (%, negative = inhibition) at 1uM” value came to 14.9%.

Consider `CCC(=O)N1CCN(c2ccc(Cl)cc2NC(=O)c2ccc([N+](=O)[O-])o2)CC1`, for which the “hERG current change (%, negative = inhibition) at 1uM” value worked out at 0.198%.

Take `COc1ccccc1N1CCN(C(=O)C2CCN(S(=O)(=O)c3ccc4c(c3)CC(C)N4C(=O)C3CC3)CC2)CC1` (stereo not shown): the “hERG current change (%, negative = inhibition) at 1uM” value was 4.54%.

For `Cc1ccnc(NC(c2ccsc2)c2ccc3ccc(C)nc3c2O)c1` (stereo not shown), the “hERG current change (%, negative = inhibition) at 1uM” value came out at 4.33%.

On to `CCOC(=O)c1c(NC(=O)CC2SC(N)=NC2=O)sc2c1CCC(C)C2` (stereo not shown), for which the “hERG current change (%, negative = inhibition) at 1uM” value amounted to 9.99%.

On to `Cn1c(=O)cc(N2CCOCC2)[nH]c1=O`, for which the “hERG current change (%, negative = inhibition) at 1uM” value is given as -3.26%.

With `Cc1c(CC(=O)NCCC(C)C)c(=O)oc2cc3c(cc12)CCC(C)(C)O3`, the “hERG current change (%, negative = inhibition) at 1uM” value stood at 17.9%.

Turning to `CN(C)C=NC(=O)c1ccc([N+](=O)[O-])c(CS(=O)(=O)c2ccc(Cl)cc2)c1`, the “hERG current change (%, negative = inhibition) at 1uM” value was -12.3%.

With `Nn1c(SCc2ccc(Br)cc2)nnc1-c1cccnc1`, the “hERG current change (%, negative = inhibition) at 1uM” value was determined as 21.3%.

As to `COc1ccc(C(CNC(=O)c2cccc(NS(=O)(=O)c3ccccc3)c2)N(C)C)cc1` (stereo not shown), the “hERG current change (%, negative = inhibition) at 1uM” value is on record as -7.23%.

As to `COC(=O)N/N=C/c1cc(OC)c(O)c([N+](=O)[O-])c1`, the “hERG current change (%, negative = inhibition) at 1uM” value is on record as 8.28%.

On to `CCN(C(=O)COc1ccccc1C(=O)NCc1ccccc1)C1CCS(=O)(=O)C1` (stereo not shown), for which the “hERG current change (%, negative = inhibition) at 1uM” value amounted to 4.74%.

As for `CCCOc1ccc(C(=O)Nc2ccc(Cl)cn2)cc1`, the “hERG current change (%, negative = inhibition) at 1uM” value is listed as 8.54%.

Turning to `O=C(N/N=C/C=C/c1ccccc1)c1n[nH]c2c1CCC2`, the “hERG current change (%, negative = inhibition) at 1uM” value came out at 18.3%.

Turning to `COc1ccccc1N(CC(=O)Nc1cc(C)on1)S(=O)(=O)c1cccc(C(F)(F)F)c1`, the “hERG current change (%, negative = inhibition) at 1uM” value was 0.88%.

In the case of `CCC[C@@H](OS(N)(=O)=O)[C@@H](Cc1ccccc1)C(=O)OCC`, the “hERG current change (%, negative = inhibition) at 1uM” value is -1.64%.

For the compound `CCOC(=O)C(Cc1ccccc1)C(=O)NCc1cccnc1` (stereo not shown), the “hERG current change (%, negative = inhibition) at 1uM” value came to 14.7%.

For `COc1ccc(/C=C/C(=O)N2CCN(C)CC2)cc1S(=O)(=O)N1CCCCC1`, the “hERG current change (%, negative = inhibition) at 1uM” value was 14.4%.

`COc1ccc(-c2nc3nc(SC)nn3cc2C)cc1F`: the “hERG current change (%, negative = inhibition) at 1uM” value is 2.46%.

As to `COc1ccc(CNC(=O)c2cc3cccc(O)c3oc2=N)cc1`, the “hERG current change (%, negative = inhibition) at 1uM” value was determined as 14.6%.

For `CCS(=O)(=O)c1ccc2oc(SCC(=O)NC34CC5CC(CC(C5)C3)C4)nc2c1`, the “hERG current change (%, negative = inhibition) at 1uM” value is on record as -1.41%.

For the compound `COc1ccc2cc(C(=O)N3CCN(Cc4ccc5c(c4)OCO5)CC3)[nH]c2c1`, the “hERG current change (%, negative = inhibition) at 1uM” value was 7.86%.

For the compound `CCc1ccc([C@@H]2CC=C(C(=O)O)[C@H](c3cccc(Cl)c3)N2S(=O)(=O)c2ccc(C)cc2)cc1`, the “hERG current change (%, negative = inhibition) at 1uM” value worked out at 17.4%.

For `CNc1c(NS(=O)(=O)c2ccc(Cl)s2)c(=O)oc2ccccc12`, the “hERG current change (%, negative = inhibition) at 1uM” value is 11.2%.

For the compound `Cc1ccc(Sc2ccncc2S(N)(=O)=O)cc1`, the “hERG current change (%, negative = inhibition) at 1uM” value came to 6.44%.

As for `CC(=O)c1ccc(NC(=O)Cn2nc(C)c([N+](=O)[O-])c2C)cc1`, the “hERG current change (%, negative = inhibition) at 1uM” value amounted to 11.3%.

Regarding `CCOP(=O)(c1c(F)c(F)c(F)c(F)c1F)C1(O)CCCCC1` (stereo not shown), the “hERG current change (%, negative = inhibition) at 1uM” value was 2.85%.

Turning to `Cc1ccc(S(=O)(=O)Oc2cccc(/C=N/Nc3ccc(C(=O)O)cc3)c2)cc1`, the “hERG current change (%, negative = inhibition) at 1uM” value was determined as 4.12%.

`COc1nc(NCCN2CCOCC2)nc(Nc2ccccc2)n1`: the “hERG current change (%, negative = inhibition) at 1uM” value was -15.6%.

For the compound `O=C(NCC1OCCc2ccccc21)c1ccc(NC(=O)c2ccc(Cl)cc2Cl)cc1` (stereo not shown), the “hERG current change (%, negative = inhibition) at 1uM” value amounted to 10.7%.

For `CNC(C)C#Cc1ccc2oc3cc(C)c(C)cc3c(=O)c2c1` (stereo not shown), the “hERG current change (%, negative = inhibition) at 1uM” value was determined as 12.1%.

On to `Cl.c1ccc(-c2nc(NCC3CCCO3)c3oc4ccccc4c3n2)cc1` (stereo not shown), for which the “hERG current change (%, negative = inhibition) at 1uM” value is listed as -5.01%.

Turning to `Cc1ccc(NC(=O)C2CC(=O)N(CCc3ccccc3)C2)c(C)c1` (stereo not shown), the “hERG current change (%, negative = inhibition) at 1uM” value worked out at 2.1%.

Regarding `CC(C)(C)n1nnnc1C(c1cccs1)N(Cc1ccc(Cl)cc1)CC1CCCO1` (stereo not shown), the “hERG current change (%, negative = inhibition) at 1uM” value is reported as -2.4%.

Consider `COCC(C)n1c(SCC(=O)NC(=O)NC2CCCC2)nc2ccccc2c1=O` (stereo not shown), for which the “hERG current change (%, negative = inhibition) at 1uM” value was 5.86%.

With `O=C(NCc1ccco1)C1CCN(S(=O)(=O)N2CCOCC2)CC1`, the “hERG current change (%, negative = inhibition) at 1uM” value was 2.3%.

Consider `Cc1ccc(C(=O)N2CCC3(CC2)Oc2ccc(Cl)cc2C(=O)C32CC(c3cccnc3)=NO2)s1` (stereo not shown), for which the “hERG current change (%, negative = inhibition) at 1uM” value is 3.11%.

In the case of `CCOC(=O)C1CCN(c2ncnc3c2cnn3-c2ccccc2)CC1`, the “hERG current change (%, negative = inhibition) at 1uM” value is -10.7%.

For `Clc1cccc(-c2nnc(-c3ccccc3)o2)c1`, the “hERG current change (%, negative = inhibition) at 1uM” value is recorded as 4.06%.

Take `CC(C)C(=O)NCCCc1ccccc1`: the “hERG current change (%, negative = inhibition) at 1uM” value is on record as 11.7%.

Turning to `Cc1ccc2c(CC(=O)NCC(C)(C)N3CCOCC3)coc2c1`, the “hERG current change (%, negative = inhibition) at 1uM” value worked out at 6.91%.

On to `CCc1ccc(OC(C)C(=O)Nc2ccc(S(=O)(=O)Nc3cc(C)on3)cc2)cc1` (stereo not shown), for which the “hERG current change (%, negative = inhibition) at 1uM” value was found to be 11.6%.

For the compound `Cc1noc(C)c1COC(=O)[C@@H](NC(=O)c1ccccc1Cl)C(C)C`, the “hERG current change (%, negative = inhibition) at 1uM” value was 12.6%.

(Values after paper PMC4336329 (PLoS ONE, 2015).)
